Experimental data from the supplement of paper PMC8728848.
Some of the results follow.

Assays:
Assay in all cases: glycan array binding signal (z-score within array); higher = stronger binding
Conditions in all cases: glycan notation: IUPAC condensed, linker removed
[1] = target: Neu5Ac(a2-3)Gal(b1-4)GlcNAc6S
Outline: (§1)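 From the Consortium for Functional Glycomics database, 3228 arrays were curated, keeping only those whose protein sequence was available. Binding is given as a within-array Z-score averaged across arrays sharing a protein sequence and across linkers. Negative Z-scores can be read as non-binding.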

[2] = target: Neu5Ac(a2-3)Gal(b1-4)[Fuc(a1-3)]GlcNAc
Outline: as §1

[3] = target: Neu5Ac(a2-3)Gal(b1-4)[Fuc(a1-3)]GlcNAc(b1-2)Man
Outline: as §1

[4] = target: Neu5Ac(a2-3)Gal(b1-4)[Fuc(a1-3)]GlcNAc(b1-3)Gal
Outline: as §1

[5] = target: Neu5Ac(a2-3)Gal(b1-4)[Fuc(a1-3)]GlcNAc(b1-3)Gal(b1-4)GlcNAc
Outline: as §1

[6] = target: Neu5Ac(a2-3)Gal(b1-4)[Fuc(a1-3)]GlcNAc(b1-3)Gal(b1-4)[Fuc(a1-3)]GlcNAc(b1-3)Gal(b1-4)[Fuc(a1-3)]GlcNAc
Outline: as §1

[7] = target: Neu5Ac(a2-3)Gal(b1-4)[Fuc(a1-3)]GlcNAc(b1-3)GalNAc
Outline: as §1

[8] = target: Neu5Ac(a2-3)Gal(b1-4)[Fuc(a1-3)]GlcNAc(b1-6)[Gal(b1-3)]GalNAc
Outline: as §1

[9] = target: Neu5Ac(a2-3)Gal(b1-4)[Fuc(a1-3)]GlcNAc(b1-6)[Neu5Ac(a2-3)Gal(b1-3)]GalNAc
Outline: as §1

[10] = target: Neu5Ac(a2-3)Gal(b1-4)[Fuc(a1-3)]GlcNAc6S
Outline: as §1

[11] = target: Neu5Ac(a2-3)Gal6S(b1-4)GlcNAc
Outline: as §1

[12] = target: Neu5Ac(a2-3)Gal6S(b1-4)[Fuc(a1-3)]GlcNAc
Outline: as §1

Neu5Ac(a2-3)GalNAc = target: Neu5Ac(a2-3)GalNAc
Outline: as §1

[13] = target: Neu5Ac(a2-3)GalNAc(b1-4)GlcNAc
Outline: as §1

[14] = target: Neu5Ac(a2-3)[GalNAc(b1-4)]Gal(b1-4)Glc
Outline: as §1

[15] = target: Neu5Ac(a2-3)[GalNAc(b1-4)]Gal(b1-4)GlcNAc
Outline: as §1

[16] = target: Neu5Ac(a2-3)[GalNAc(b1-4)]Gal(b1-4)GlcNAc(b1-3)GalNAc
Outline: as §1

[17] = target: Neu5Ac(a2-3)[Neu5Ac(a2-6)]GalNAc
Outline: as §1

Neu5Ac(a2-6)Gal = target: Neu5Ac(a2-6)Gal
Outline: as §1

[18] = target: Neu5Ac(a2-6)Gal(b1-3)GlcNAc(b1-3)[Gal(b1-4)GlcNAc(b1-6)]Gal(b1-4)Glc
Outline: as §1

Neu5Ac(a2-6)Gal(b1-4)Glc = target: Neu5Ac(a2-6)Gal(b1-4)Glc
Outline: as §1

[19] = target: Neu5Ac(a2-6)Gal(b1-4)GlcNAc
Outline: as §1

[20] = target: Neu5Ac(a2-6)Gal(b1-4)GlcNAc(b1-2)Man
Outline: as §1

[21] = target: Neu5Ac(a2-6)Gal(b1-4)GlcNAc(b1-2)Man(a1-3)Man(b1-4)GlcNAc(b1-4)GlcNAc
Outline: as §1

[22] = target: Neu5Ac(a2-6)Gal(b1-4)GlcNAc(b1-2)Man(a1-3)[Gal(b1-4)GlcNAc(b1-2)Man(a1-6)]Man(b1-4)GlcNAc(b1-4)GlcNAc
Outline: as §1

[23] = target: Neu5Ac(a2-6)Gal(b1-4)GlcNAc(b1-2)Man(a1-3)[GlcNAc(b1-2)Man(a1-6)]Man(b1-4)GlcNAc(b1-4)GlcNAc
Outline: as §1

[24] = target: Neu5Ac(a2-6)Gal(b1-4)GlcNAc(b1-2)Man(a1-3)[GlcNAc(b1-4)][Neu5Ac(a2-6)Gal(b1-4)GlcNAc(b1-2)Man(a1-6)]Man(b1-4)GlcNAc(b1-4)GlcNAc
Outline: as §1

[25] = target: Neu5Ac(a2-6)Gal(b1-4)GlcNAc(b1-2)Man(a1-3)[Man(a1-6)]Man(b1-4)GlcNAc(b1-4)GlcNAc
Outline: as §1

[26] = target: Neu5Ac(a2-6)Gal(b1-4)GlcNAc(b1-2)Man(a1-3)[Neu5Ac(a2-3)Gal(b1-4)GlcNAc(b1-2)Man(a1-6)]Man(b1-4)GlcNAc(b1-4)GlcNAc
Outline: as §1

[27] = target: Neu5Ac(a2-6)Gal(b1-4)GlcNAc(b1-2)Man(a1-3)[Neu5Ac(a2-6)Gal(b1-4)GlcNAc(b1-2)Man(a1-6)]Man(b1-4)GlcNAc(b1-4)GlcNAc
Outline: as §1

[28] = target: Neu5Ac(a2-6)Gal(b1-4)GlcNAc(b1-2)Man(a1-3)[Neu5Ac(a2-6)Gal(b1-4)GlcNAc(b1-2)Man(a1-6)]Man(b1-4)GlcNAc(b1-4)[Fuc(a1-6)]GlcNAc
Outline: as §1

[29] = target: Neu5Ac(a2-6)Gal(b1-4)GlcNAc(b1-2)Man(a1-6)Man(b1-4)GlcNAc(b1-4)GlcNAc
Outline: as §1

[30] = target: Neu5Ac(a2-6)Gal(b1-4)GlcNAc(b1-2)Man(a1-6)[Gal(b1-4)GlcNAc(b1-2)Man(a1-3)]Man(b1-4)GlcNAc(b1-4)GlcNAc
Outline: as §1

[31] = target: Neu5Ac(a2-6)Gal(b1-4)GlcNAc(b1-2)Man(a1-6)[GlcNAc(b1-2)Man(a1-3)]Man(b1-4)GlcNAc(b1-4)GlcNAc
Outline: as §1

[32] = target: Neu5Ac(a2-6)Gal(b1-4)GlcNAc(b1-2)Man(a1-6)[Man(a1-3)]Man(b1-4)GlcNAc(b1-4)GlcNAc
Outline: as §1

[33] = target: Neu5Ac(a2-6)Gal(b1-4)GlcNAc(b1-2)[Neu5Ac(a2-6)Gal(b1-4)GlcNAc(b1-4)]Man(a1-3)[GlcNAc(b1-4)][Neu5Ac(a2-6)Gal(b1-4)GlcNAc(b1-2)[Neu5Ac(a2-6)Gal(b1-4)GlcNAc(b1-6)]Man(a1-6)]Man(b1-4)GlcNAc(b1-4)GlcNAc
Outline: as §1

[34] = target: Neu5Ac(a2-6)Gal(b1-4)GlcNAc(b1-2)[Neu5Ac(a2-6)Gal(b1-4)GlcNAc(b1-4)]Man(a1-3)[GlcNAc(b1-4)][Neu5Ac(a2-6)Gal(b1-4)GlcNAc(b1-4)Man(a1-6)]Man(b1-4)GlcNAc(b1-4)GlcNAc
Outline: as §1

[35] = target: Neu5Ac(a2-6)Gal(b1-4)GlcNAc(b1-2)[Neu5Ac(a2-6)Gal(b1-4)GlcNAc(b1-6)]Man(a1-6)[Neu5Ac(a2-6)Gal(b1-4)GlcNAc(b1-2)Man(a1-3)][GlcNAc(b1-4)]Man(b1-4)GlcNAc(b1-4)GlcNAc
Outline: as §1

[36] = target: Neu5Ac(a2-6)Gal(b1-4)GlcNAc(b1-3)Gal(b1-3)GlcNAc
Outline: as §1

[37] = target: Neu5Ac(a2-6)Gal(b1-4)GlcNAc(b1-3)Gal(b1-4)GlcNAc
Outline: as §1

[38] = target: Neu5Ac(a2-6)Gal(b1-4)GlcNAc(b1-3)Gal(b1-4)GlcNAc(b1-2)Man(a1-3)[Neu5Ac(a2-6)Gal(b1-4)GlcNAc(b1-3)Gal(b1-4)GlcNAc(b1-2)Man(a1-6)]GalNAc
Outline: as §1

[39] = target: Neu5Ac(a2-6)Gal(b1-4)GlcNAc(b1-3)Gal(b1-4)GlcNAc(b1-3)Gal(b1-4)GlcNAc
Outline: as §1

[40] = target: Neu5Ac(a2-6)Gal(b1-4)GlcNAc(b1-3)Gal(b1-4)GlcNAc(b1-3)Gal(b1-4)GlcNAc(b1-2)Man(a1-3)[Neu5Ac(a2-6)Gal(b1-4)GlcNAc(b1-3)Gal(b1-4)GlcNAc(b1-3)Gal(b1-4)GlcNAc(b1-2)Man(a1-6)]GalNAc
Outline: as §1

[41] = target: Neu5Ac(a2-6)Gal(b1-4)GlcNAc(b1-3)Gal(b1-4)GlcNAc(b1-3)GalNAc
Outline: as §1

[42] = target: Neu5Ac(a2-6)Gal(b1-4)GlcNAc(b1-3)Gal(b1-4)GlcNAc(b1-3)[Neu5Ac(a2-6)Gal(b1-4)GlcNAc(b1-3)Gal(b1-4)GlcNAc(b1-6)]GalNAc
Outline: as §1

B1: SJA (Sophora japonica) (protein)
chain: FLGLFNSGGYSSSYQIVAVEFDTYINEWDPKTRHIGIDINSINSTKTVTWGWENGEVAIVLISYKAATETLTVSLTYPSSQTSYILSAAVDLKSILPEWVRIGF
- glycan array binding signal (z-score) [1]: -0.265
- glycan array binding signal (z-score) [2]: -0.18
- glycan array binding signal (z-score) [3]: -0.157
- glycan array binding signal (z-score) [4]: -0.317
- glycan array binding signal (z-score) [5]: -0.165
- glycan array binding signal (z-score) [6]: -0.208
- glycan array binding signal (z-score) [7]: -0.087
- glycan array binding signal (z-score) [8]: -0.036
- glycan array binding signal (z-score) [9]: -0.056
- glycan array binding signal (z-score) [10]: -0.247
- glycan array binding signal (z-score) [11]: -0.107
- glycan array binding signal (z-score) [12]: -0.256
- glycan array binding signal (z-score) (Neu5Ac(a2-3)GalNAc): -0.294
- glycan array binding signal (z-score) [13]: -0.234
- glycan array binding signal (z-score) [14]: -0.246
- glycan array binding signal (z-score) [15]: -0.251
- glycan array binding signal (z-score) [16]: 0.864
- glycan array binding signal (z-score) [17]: -0.201
- glycan array binding signal (z-score) (Neu5Ac(a2-6)Gal): -0.122
- glycan array binding signal (z-score) [18]: -0.187
- glycan array binding signal (z-score) (Neu5Ac(a2-6)Gal(b1-4)Glc): -0.124
- glycan array binding signal (z-score) [19]: -0.22
- glycan array binding signal (z-score) [20]: -0.33
- glycan array binding signal (z-score) [21]: -0.207
- glycan array binding signal (z-score) [22]: -0.282
- glycan array binding signal (z-score) [23]: -0.29
- glycan array binding signal (z-score) [24]: -0.448
- glycan array binding signal (z-score) [25]: -0.164
- glycan array binding signal (z-score) [26]: -0.178
- glycan array binding signal (z-score) [27]: -0.095
- glycan array binding signal (z-score) [28]: -0.149
- glycan array binding signal (z-score) [29]: -0.09
- glycan array binding signal (z-score) [30]: -0.265
- glycan array binding signal (z-score) [31]: -0.097
- glycan array binding signal (z-score) [32]: -0.242
- glycan array binding signal (z-score) [33]: -0.212
- glycan array binding signal (z-score) [34]: -0.09
- glycan array binding signal (z-score) [35]: -0.339
- glycan array binding signal (z-score) [36]: -0.207
- glycan array binding signal (z-score) [37]: -0.283
- glycan array binding signal (z-score) [38]: 0.045
- glycan array binding signal (z-score) [39]: -0.128
- glycan array binding signal (z-score) [40]: 1.24
- glycan array binding signal (z-score) [41]: -0.366
- glycan array binding signal (z-score) [42]: 1.33
